Measured values from PubChem BioAssay AID485344 (National Center for Advancing Translational Sciences (NCATS), 2010).
Values joined by “and” are separate entries in the source; they are usually repeats but may differ in a detail not shown here. Identical values can stand only once. Hit rate of the full screen: of about 340,000 compounds, about 6,900 (2%) were called active. Rule as the data show it: active = inhibition above about 30%; inactive = below that, where a call was filed. The entries are a selection whose mix differs from that of the whole data set. The source gives no active or inactive call for entries shown without one.

These compounds were tested against D(2) dopamine receptor (Homo sapiens) (UniProt P14416) (assay: HTS Assay for Allosteric Antagonists of the Human D2 Dopamine Receptor: Primary Screen for Antagonists). Conditions: HEK293 TREx D2 cells, calcium flux, dopamine EC80; at 10 µM; stronger effect = higher value.
Summary of the method: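 Dopamine at EC80 is the agonist stimulus; test compounds precede it by 180 s. Calcium flux read kinetically in a force-coupled, inducible HEK293 T-REx D2 cell line.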
Also: 0% is about no effect.

UniProt P14416, sequence (P14416 whole entry, looked up): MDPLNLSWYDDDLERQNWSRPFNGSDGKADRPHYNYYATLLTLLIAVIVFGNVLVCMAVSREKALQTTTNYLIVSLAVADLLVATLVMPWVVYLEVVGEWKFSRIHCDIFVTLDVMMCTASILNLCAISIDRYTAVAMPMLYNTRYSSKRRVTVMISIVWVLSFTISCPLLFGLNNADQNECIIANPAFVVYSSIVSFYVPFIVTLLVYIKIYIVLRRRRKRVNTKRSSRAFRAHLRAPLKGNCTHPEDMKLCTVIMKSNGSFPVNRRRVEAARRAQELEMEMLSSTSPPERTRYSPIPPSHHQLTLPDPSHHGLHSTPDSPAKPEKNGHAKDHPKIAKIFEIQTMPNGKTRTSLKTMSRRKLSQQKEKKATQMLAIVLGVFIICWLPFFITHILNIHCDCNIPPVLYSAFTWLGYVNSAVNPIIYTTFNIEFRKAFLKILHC

SMILES | inhibition
CCOC(=O)N1CCc2c(sc3c2c(=O)n(-c2ccc(CC)cc2)c(=O)n3Cc2cccc(OC)c2)C1 | 12.2%
CCc1ccc(S(=O)(=O)N(C(C)=O)c2ccc3oc4c(c3c2)CCCC4)cc1 | 23.7%
CCOc1ccc(C(=O)Nc2ccc3c(c2)N(C(C)=O)CCC3)cc1OCC | -15.3%
COc1ccc(NS(=O)(=O)c2ccc3c(c2)NC(=O)CCS3)c(OC)c1 | -2.38%
CCC(C(=O)Nc1cc(C)ccc1OC)n1nnc(C(=O)OC)c1C(=O)OC (stereo not drawn) | -5.96%
CCOc1ccc(C2c3c(oc4cc(C)c(C)cc4c3=O)C(=O)N2c2ccccn2)cc1 (stereo not drawn) | 6.14%
COc1cccc(N2CCN(C(=O)c3c4c(nc5ccccc35)C(=O)N(C3CCCCC3)C4)CC2)c1 | -7.53%
Cc1cc(SCC(=O)Nc2nsc(-c3ccc(C(C)(C)C)cc3)n2)nc2ccccc12 | 8.69%
CS(=O)(=O)N1CCCC(C(=O)N2CCN(c3cccc(Cl)c3)CC2)C1 (stereo not drawn) | active: 31.2%
COc1ccc(OCc2nc(C#N)c(NCc3ccccc3Cl)o2)cc1 | 10.9%
COc1ccc(-c2nc3sc(CCNS(=O)(=O)c4c(C)cc(C)cc4C)c(C)n3n2)cc1 | -10.8%
COc1cc(Cl)c(C)cc1Nc1nnc(-n2nc(C)cc2C)c2ccccc12 | 6.64%
CCc1cccc(NC(=O)C(Cc2ccccc2)NS(=O)(=O)c2ccc3c(c2)c(=O)n(C)c(=O)n3C)c1 (stereo not drawn) | -7.94%
c1cnc(N2CCN(Cc3ccc4c(c3)OCO4)CC2)nc1 | active: 86.6% and active: 88.5%
Cc1ccc(NC(=O)CSc2nccn2Cc2ccc3c(c2)OCO3)c(C)c1 | -3.79%
Cc1ccc(C(=O)/C=C/c2cn(CC(O)CN3CCCCCC3)c3ccccc23)cc1 (stereo not drawn) | -0.336%
CCC1=C(c2ccc(C)cc2)S(=O)(=O)N=C1N1CCC(C(=O)NCc2ccc(C)cc2)CC1 | -2.24%
Cc1cc(C)c(NC(=O)CN(C)S(=O)(=O)c2ccc3c(c2)c(=O)n(C)c(=O)n3C)c(C)c1 | 9.55%
CCC(C)NC(=O)CCC(=O)NNc1nc2ccccc2c2nc(C)nn12 (stereo not drawn) | 0.742%
O=C(Nc1ccc(F)cc1F)N1CCc2c(sc3c2CCCC3)C1c1ccc(F)cc1 (stereo not drawn) | -24.3%

SMILES | inhibition
Cc1ccc(-c2nn3c(=O)cc(CN4CCN(C(=O)c5ccc(C(C)(C)C)cc5)CC4)nc3s2)cc1 | 2.42%
COCCn1c(=NC(=O)c2ccc3c(c2)OCCO3)sc2cc(NC(C)=O)ccc21 | 4.9%
CCc1ccc(S(=O)(=O)n2ccnc2)cc1 | -6.59%
COc1cc(NS(=O)(=O)c2ccc(NC(=O)c3ccc(OC)c(Br)c3)cc2)nc(OC)n1 | 12.1%
CC1(NC(=O)C2CCCCC2)CCS(=O)(=O)C1 (stereo not drawn) | active: 42%
CC(C)c1ccc(NC(=O)CN2C(=O)CCc3cc(S(=O)(=O)N4CCOCC4)ccc32)cc1 | 0.444%
COc1ccc(C(=O)N2CCN(C(=O)COc3ccc(C)cc3)CC2)cc1OC | -22.7%
COc1cc2c(C(=O)N3CCN(c4cc(Cl)ccc4C)CC3)cn(CC(C)C)c(=O)c2cc1OC | -16.4%
COc1ccc(S(=O)(=O)NCCc2sc(-c3cccc(F)c3)nc2C)cc1 | -13.7%
O=C(Cn1cc(S(=O)(=O)N2CCN(c3ccccc3F)CC2)c2ccccc2c1=O)Nc1ccc(F)cc1Cl | -5.23%
CC(C)c1ccc(NC(=O)c2ccc(F)c(S(=O)(=O)N3CCN(c4ccccc4F)CC3)c2)cc1 | 5.68%
Cc1ccc(C)c(NS(=O)(=O)c2ccc(OCC(=O)N3CCOCC3)cc2)c1 | active: 32.3%
Cc1ccc(Cl)cc1N1CCN(S(=O)(=O)c2ccc(-c3cnc(C4CC4)o3)cc2)CC1 | -4.29%
COc1ccc(S(=O)(=O)NCCc2sc(-c3ccccc3)nc2C)cc1F | 11.1%
CC(=O)c1ccc(NC(=O)c2cc(C3CC3)nc3c2c(C)nn3-c2ccc(C)cc2)cc1 | 5.02%
COc1ccc(C(=O)NC2CCN(S(=O)(=O)c3ccccc3F)CC2)cc1 | active: 32.6%
COc1ccc(Cl)cc1NC(=O)Cn1nnc(C(=O)NCc2ccc3c(c2)OCO3)c1N | -8.7%
COC(=O)c1sccc1S(=O)(=O)N1CCN(c2ccc(C(C)=O)cc2)CC1 | 28.3%
Cn1c(=O)c2c(n3c4ccccc4nc13)NC(=O)CC2c1cccc(Cl)c1 (stereo not drawn) | 15.9%
CCN(CC)CCOC(=O)c1ccc(NC(=O)c2cc3cccc(OC)c3oc2=O)cc1 | -10.3%

SMILES | inhibition
Cc1ccc(Cn2c(CN3CCC(C(=O)NCC(C)c4ccccc4)CC3)cc3ccccc32)cc1 (stereo not drawn) | 10.1%
Cc1ccc(C)c(N2CCN(C(=O)C3CCCN(S(=O)(=O)c4cccc5nonc45)C3)CC2)c1 (stereo not drawn) | 14.5%
Cc1ccc(-c2cc(C(=O)Nc3c(C(=O)c4ccc(C)c(F)c4)oc4ccccc34)no2)cc1 | 3.21%
CCOCCc1nn2c(=O)cc(COC(=O)c3cccc(C)c3)nc2s1 | 9.33%
CCOC(=O)c1c(NC(=O)CSc2cn(CCNC(=O)c3c(F)cccc3F)c3ccccc23)sc2c1CCCC2 | -10.5%
COc1ccc(NC(=O)CSc2nc(-c3ccc(OC)c(OC)c3)[nH]c2-c2ccc(C)cc2)cc1 | -6.78%
CCOC(=O)Cc1ccc(NC(=O)N(C(C)C)C2CCN(C(C)=O)CC2)cc1 | 20.3%
COc1ccc(NCc2cc3cc4c(cc3n(CC(=O)Nc3ccccc3)c2=O)OCO4)cc1 | 11%
O=C(Nc1ccc(Cl)cc1)c1cc(S(=O)(=O)N2CCCc3ccccc32)ccc1F | -1.24%
CCOC(=O)c1noc2ncn(Cc3cccc(C#N)c3)c(=O)c12 | 8.86%
Cc1cc(Cl)ccc1NC(=O)CN1C(=O)COc2ccc(S(=O)(=O)N3CCC(C)CC3)cc21 | 14.4%
O=C(CCCn1c(=O)[nH]c2ccsc2c1=O)N1CCN(c2cccc(C(F)(F)F)c2)CC1 | 7.93%
COc1ccccc1CN(Cc1ccco1)c1cnc(S(C)(=O)=O)nc1C(=O)Nc1ccccc1Cl | 3.99%
CCOc1ccc(CCNC(=O)CCCc2nnc3n(C)c(=O)c4sccc4n23)cc1OCC | -12.6%
Cc1c(C(=O)OC2CCC(C)CC2)[nH]c2c1C(=O)CC(c1ccccc1Cl)C2 (stereo not drawn) | 7.94%
COc1ccc(OCC(=O)Nc2nc(-c3ccc(Br)cc3)ns2)cc1 | -1.66%
O=C(COC(=O)c1ccc(F)cc1F)NC1CC1 | active: 30.9%
CCc1cccc(C)c1NC(=O)NC1COc2ccccc2C1 (stereo not drawn) | 4.11%
